The other results are listed elsewhere or left out.

This experiment concerns T1, C. trachomatis L2/434/Bu expressing GFP (CTL2-GFP).
T1 construct: L2/434/Bu GFP intracellular growth in HeLa cells
Set-up: species or system HeLa; C. trachomatis total inclusion area by high-content imaging, normalised to DMSO. Particulars: total inclusion area; 28.5 h, 10 µM; inhibitor. In short, it runs like this:
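Bulk GFP and resorufin signals were read first. Wells were then fixed, stained with Hoechst and imaged to detect GFP inclusions and host nuclei. MICs followed the previously described calculation.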
Regarding `O=C(NCc1ccccn1)c1cc(-c2ccc(Cl)cc2)[nH]n1` [CBK116549], the “% of control remaining” value worked out at 89.2258. `O=S1(=O)CCC(c2nnc(C3(c4ccc(Br)cc4)CCOCC3)o2)C1` (stereo not drawn) [CBK305513]: the “% of control remaining” value came to 84.8418. In the case of `NS(=O)(=O)c1ccc(NC(=O)C2Cc3ccccc3CN2S(=O)(=O)c2ccc(F)cc2)cc1` (stereo not drawn) [CBK265208], the “% of control remaining” value came to 110.498. Consider `Cn1ccnc1C1(O)CCN(C(=O)Nc2ccc(F)cc2)CC1` [CBK282277], for which the “% of control remaining” value came to 89.2938.

As for `O=C(CCN1CCCCC1)N1CCc2ccccc21` [CBK200413], the “% of control remaining” value is 94.8047. Turning to `COc1ccc(C(NC(=O)c2cc3ccccc3[nH]2)C2CC2)cc1` (stereo not drawn) [CBK297896], the “% of control remaining” value was determined as 88.9529. The result for `O=C(COc1ccc(S(=O)(=O)NC2CCCCC2)cc1)N1CCN(c2cccc(Cl)c2)CC1` [CBK265948] reads 85.8439; that for `CC(=O)N1CCC(n2c(C3CC3)nc3sc(C)c(C)c3c2=O)CC1` [CBK282369], 76.5857. The result for `O=C(Nc1ccsc1C(=O)O)c1ccc(Cl)cc1` [CBK076902] reads 104.186; that for `Cc1cc(Br)ccc1C(=O)NCCc1c[nH]c2ccc(Cl)cc12` [CBK159771], 39.7987; that for `Cc1nc(N)sc1-c1csc(Nc2ncccn2)n1` [CBK263307B], 89.9291.

Regarding `CC(N)C(=O)Nc1ccccc1-c1ccccc1` (stereo not drawn) [CBK267700], the “% of control remaining” value is 104.322.

For the compound `COC(=O)c1ccc(NC(=O)c2ccc(-n3cccn3)cc2)cc1` [CBK269486], the “% of control remaining” value is reported as 81.372. For the compound `CC(=O)c1cc(C(=O)N2CCC(O)(c3cccc(C)c3)CC2)cs1` [CBK282531], the “% of control remaining” value was 65.3738.

Consider `CC(=O)Cc1c(C(=O)O)c(C)nn1-c1ccccc1` [CBK286779], for which the “% of control remaining” value was determined as 79.7234.

Regarding `N#CCCSCc1ccc(C(=O)O)o1` [CBK265858], the “% of control remaining” value worked out at 55.6621. Turning to `COc1ccc(OC(C)C(=O)Nc2ccccc2-c2ccccc2)cc1` (stereo not drawn) [CBK266661], the “% of control remaining” value stood at 95.3464. Consider `CCNC(=O)O[C@@H]1CO[C@H]2[C@@H]1OC[C@@H]2NS(=O)(=O)c1ccccc1C#N` [CBK289474], for which the “% of control remaining” value is 116.199. The value for `Cc1cc(NC(=O)CCCc2ccccc2)nc2c1c(=O)oc1ccccc12` [CBK291204] was 105.344. In the case of `COC(=O)c1c(NC(=S)NCc2ccc(S(N)(=O)=O)cc2)sc2c1CCC(C)C2` (stereo not drawn) [CBK267039], the “% of control remaining” value was determined as 104.632.

`CCc1nc2c(OCc3ccccc3OC)cccn2c1N(C)C(=O)C(C)C` [CBK147763]: the “% of control remaining” value was determined as 75.9845.

For the compound `Cc1ccc(Cl)cc1NC(=O)c1ccc(NCCN2C(=O)C3C4C=CC(C4)C3C2=O)c([N+](=O)[O-])c1` (stereo not drawn) [CBK268357], the “% of control remaining” value came out at 101.701. As for `Cc1ccc(C(=O)Nc2nc3ccc(S(=O)(=O)N(C)C)cc3s2)cc1` [CBK287603], the “% of control remaining” value was 93.7493.

Take `O=C(C1=C(O)C(=O)N(Cc2cccnc2)C1c1cccnc1)c1ccccc1` (stereo not drawn) [CBK264522]: the “% of control remaining” value was found to be 102.29. For the compound `CNC(=O)C1(Cc2ccccc2-c2cccs2)CCN(C(=O)Cc2ccccc2)CC1` [CBK285746], the “% of control remaining” value is reported as 115.371. With `COc1ccccc1-c1nccnc1N(C)Cc1ccccc1` [CBK036774], the “% of control remaining” value came out at 128.82.

`O=C(Nc1ccccc1C(=O)O)c1ccccc1O` [CBK012116]: the “% of control remaining” value was determined as 48.6581. In the case of `COCCN(Cc1ccncc1)C(=O)c1cnc2ccnn2c1C` [CBK306965], the “% of control remaining” value came to 85.099. Turning to `O=C(Nc1ccccc1C(=O)N1CCN(Cc2ccccc2)CC1)c1ccccn1` [CBK263512], the “% of control remaining” value is recorded as 84.9329. Regarding `COC(=O)CN(c1ccc(Cl)cc1Cl)S(C)(=O)=O` [CBK267654], the “% of control remaining” value was determined as 101.758. The result for `COc1cc(C2N(Cc3ccccc3)CCCN2Cc2ccccc2)c([N+](=O)[O-])cc1OC` [CBK265224] reads 94.6901. The result for `O=c1[nH]c(SCc2c(Cl)cccc2Cl)nc2ccnn12` [CBK116145] reads 89.1159. The result for `CCC(Cn1ccnc1)NS(=O)(=O)c1cc(-n2cccn2)ccc1OC` (stereo not drawn) [CBK307483] reads 83.5632. As for `CC(NC(=O)Cn1c(-c2nonc2N)nc2ccccc21)c1ccccc1` (stereo not drawn) [CBK266006], the “% of control remaining” value is given as 121.483.

For the compound `Cc1ccc(S(=O)(=O)Nc2c(C(=O)N3CCN(C)CC3)sc3ncccc23)cc1[N+](=O)[O-]` [CBK050025], the “% of control remaining” value worked out at 103.654.

In the case of `C=Cn1cc(CN2C3CCC2CC(O)(c2ccc(C)cc2)C3)c(C)n1` (stereo not drawn) [CBK283015], the “% of control remaining” value came out at 89.6051.

`O=C(O)c1cccc2c1C(=O)N(Cc1cccs1)C2` [CBK291246]: the “% of control remaining” value came out at 96.083.

As to `NC(=O)CN1CC2(CCN(CCc3c[nH]c4ccccc34)CC2)c2ccccc21` [CBK126784], the “% of control remaining” value was determined as 93.9426.

Take `Cn1c(=O)oc2ccc(C(=O)NCCN3CCCCC3CO)cc21` (stereo not drawn) [CBK307594]: the “% of control remaining” value is 52.6725. Turning to `COc1ccc2[nH]c3c(c2c1)CCNC31CCN(Cc2cc(F)cc(F)c2)C1` (stereo not drawn) [CBK039368], the “% of control remaining” value was determined as 63.8858. `Cc1ccc(/C(N)=N/OC(=O)CN(C)S(=O)(=O)c2ccc3ccccc3c2)cc1` [CBK267363]: the “% of control remaining” value came out at 105.251. Turning to `Cc1csc2c(NC(C)C)ncnc12` [CBK017059], the “% of control remaining” value came out at 60.0815.

Take `Cn1nccc1CCNS(=O)(=O)c1cccc(C(=O)N2CCCCC2)c1` [CBK307086]: the “% of control remaining” value is 77.2154. With `COc1cccc(CN2CCCC(c3nc(C)n4ccccc34)C2)c1` (stereo not drawn) [CBK282989], the “% of control remaining” value was 113.258. The result for `CC(C)CCN(Cc1ccc(-c2ccc(S(C)(=O)=O)cc2)nc1)C1CCN(C(=O)OC(C)(C)C)CC1` [CBK165138] reads 100.948; that for `COc1ccc(C)cc1S(=O)(=O)N(C)CC(=O)Nc1cccc(SC)c1` [CBK267510], 93.9824. `c1ccc2c(c1)CSCC2Oc1cncc(N2CCNCC2)n1` (stereo not drawn) [CBK172356T]: the “% of control remaining” value came out at 59.5071. As for `O=C(O)c1cccc(NS(=O)(=O)c2ccc(F)c(C(F)(F)F)c2)c1` [CBK155693], the “% of control remaining” value stood at 101.509. As to `C=Cn1ncc(CN2CCCC(O)(c3ccc(F)cc3)CC2)c1C` (stereo not drawn) [CBK284837], the “% of control remaining” value stood at 87.3077. Consider `Cc1cc(NC(=O)CN2CC=C(c3ccc(C)o3)CC2)no1` [CBK283608], for which the “% of control remaining” value is recorded as 90.5342. With `CCNC(=O)C1(NC(=O)Cc2cn3cccc(C)c3n2)CCCCC1` [CBK304933], the “% of control remaining” value was 67.2819.

These data come from publication PMC12040169 (PLOS Biology, 2025).
